Biological target: T1, human CD98 on the cell surface (human)
T1 chain: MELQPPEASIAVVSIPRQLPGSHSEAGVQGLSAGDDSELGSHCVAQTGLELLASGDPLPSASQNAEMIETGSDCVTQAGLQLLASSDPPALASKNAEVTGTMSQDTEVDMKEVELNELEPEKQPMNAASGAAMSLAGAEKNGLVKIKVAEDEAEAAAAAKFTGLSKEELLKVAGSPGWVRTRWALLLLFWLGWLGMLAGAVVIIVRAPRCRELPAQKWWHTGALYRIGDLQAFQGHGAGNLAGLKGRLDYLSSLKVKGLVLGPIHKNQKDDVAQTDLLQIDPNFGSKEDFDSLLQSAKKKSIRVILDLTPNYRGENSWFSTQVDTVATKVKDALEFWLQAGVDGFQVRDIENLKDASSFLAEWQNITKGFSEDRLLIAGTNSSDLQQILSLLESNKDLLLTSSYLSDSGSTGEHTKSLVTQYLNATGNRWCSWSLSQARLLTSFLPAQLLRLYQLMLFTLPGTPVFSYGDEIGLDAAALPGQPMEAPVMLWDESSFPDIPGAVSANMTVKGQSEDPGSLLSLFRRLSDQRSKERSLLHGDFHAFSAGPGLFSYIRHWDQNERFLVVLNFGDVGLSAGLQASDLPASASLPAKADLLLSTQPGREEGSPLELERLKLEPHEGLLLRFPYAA
Experiment: cell-based or functional assay

- ADC potency, IC50 (nM), H146 (SCLC) growth inhibition: 0.043 nM
- ADC potency, IC50 (nM), H2170 (NSCLC) growth inhibition: 0.12 nM
- ADC potency, IC50 (nM), MOLT4 (leukemia) growth inhibition: 0.03 nM
B1: ChAb4-CZ (other)
VH: EVKLVESGGGLVQPGGSLRLSCTTSGFTFTDYYMSWVRQPPGKALEWLGFIRNKATIYTTEYSASVKGRFTISRDNSQSILYLQMNTLRAEDSATYYCARASYGNSEGWFAYWGQGTLVTVSA
VL: DIVMSQSPSSLAVSVGEKVTMS[about 80 residues omitted here]FGGGTKLEIK
modifications: synthon CZ on reduced interchain Cys of the constant regions (sites not numbered)

— US20200121803A1 (published 2020)
